Data as given in the supplement of paper PMC8813932.
Counter-ions that a name gives are not always drawn. ± gives the standard deviation of the averaged measurements. Some of the results follow. Many values rest on one well or one pass, so single values are uncertain.

Tests used:
Test in all cases: log2 surviving fraction relative to plate median (drug vs vehicle, or drug+dl922-947 vs dl922-947 alone); ovarian cancer lines: OVCAR4 is platinum-sensitive while Ov4Cis resists cisplatin and Ov4Carbo carboplatin; higher = more cell survival
Conditions in all cases: compound concentration: 10 uM, 192 h
OVCAR4 = system: OVCAR4
Ov4Carbo = system: Ov4Carbo
Ov4Cis = system: Ov4Cis
[1] = dl922-947 oncolytic adenovirus co-treatment: MOI 10
[2] = dl922-947 oncolytic adenovirus co-treatment: none

SMILES | log2 surviving fraction (OVCAR4; [1]) | log2 surviving fraction (OVCAR4; [2]) | log2 surviving fraction (Ov4Carbo; [1]) | log2 surviving fraction (Ov4Carbo; [2]) | log2 surviving fraction (Ov4Cis; [1]) | log2 surviving fraction (Ov4Cis; [2])
Clc1ccc2c(c1)CCc1cccnc1C2=C1CCNCC1 [Desloratadine] | -4.14 ± 4.1 | -2.62 ± 1.9 | -7.22 | -8.16 | -2.84 | -3.06
CCC1(c2ccc(N)cc2)CCC(=O)NC1=O (stereo not given) [Aminoglutethimide (Cytadren)] | 0.125 ± 0.49 | 0.57 ± 1.1 | -1.06 | -0.758 | 1.08 | 0.449
NCC1(CC(=O)O)CCCCC1 [Gabapentin Hydrochloride] | -0.559 ± 0.084 | 0.219 ± 0.11 | 1.06 | 1.47 | -0.838 | 0.168
Nc1nc(Cl)nc2c1ncn2[C@H]1C[C@H](O)[C@@H](CO)O1 [Cladribine] | -3.31 ± 0.44 | -4.02 ± 1.4 | -4.47 | -7.25 | -4.19 | -6.43
Nc1[nH]cnc2ncnc1-2 [Adenine hydrochloride] | 0.697 ± 0.27 | 0.248 ± 0.86 | 1.46 | 0.0236 | 0.807 | 1.49
OC(CCN1CCCCC1)(c1ccccc1)c1ccccc1 [Pridinol Methanesulfonate] | -0.196 ± 1 | 0.302 ± 0.43 | -0.924 | 0.276 | 0.955 | -0.901
CCCCCCCN(CC)CCCC(O)c1ccc(NS(C)(=O)=O)cc1 (stereo not given) [Ibutilide fumarate] | -0.594 ± 0.54 | -0.29 ± 0.14 | -0.261 | -0.502 | -0.689 | -0.228
CNS(=O)(=O)CCc1ccc2[nH]cc(C3CCN(C)CC3)c2c1 [Naratriptan HCl] | 0.617 ± 0.15 | 0.124 ± 0.11 | -0.297 | -0.0112 | 0.295 | 0.0638
NC[C@H]1O[C@H](O[C@H]2[C@H](O)[C@@H](O[C@H]3O[C@H](CO)[C@@H](O)[C@H](N)[C@H]3O)[C@H](N)C[C@@H]2N)[C@H](N)C[C@@H]1O [Tobramycin] | -0.447 ± 0.31 | -0.00706 ± 0.088 | -0.4 | -0.518 | -1.78 | -0.0636
C[C@]12CCC(=O)C=C1[C@@H]1C[C@@H]1[C@H]1[C@@H]3[C@@H]4C[C@@H]4[C@@]4(CCC(=O)O4)[C@@]3(C)CC[C@@H]12 [Drospirenone] | -0.134 ± 0.18 | 0.466 ± 0.12 | 0.244 | -0.0474 | 0.658 | 0.747
COc1cccc2c1C(=O)c1c(O)c3c(c(O)c1C2=O)C[C@@](O)(C(=O)CO)C[C@@H]3O[C@H]1C[C@H](N)[C@H](O)[C@H](C)O1 [Doxorubicin (Adriamycin)] | -7.8 ± 1.6 | -8.55 ± 9.1 | -5.59 | -10.5 | -3.68 | -11.1
CC(C)NCC(O)COc1ccc(CCOCC2CC2)cc1 (stereo not given) [Betaxolol (Betoptic)] | 0.552 ± 0.21 | 0.292 ± 0.27 | -0.647 | -0.655 | 0.179 | 0.44
COc1ccc2c(c1OC)C(=O)O[C@@H]2[C@H]1c2c(cc3c(c2OC)OCO3)CCN1C [Noscapine HCl] | -1.17 ± 0.65 | -0.706 ± 0.068 | -1.69 | -0.724 | -0.0577 | -1.89
O[C@@H]1CO[C@H]2[C@@H]1OC[C@@H]2O [Isosorbide] | -0.141 ± 0.034 | 0.535 ± 0.48 | -0.355 | 0.0885 | 0.673 | -0.02
Nc1ccc(S(=O)(=O)Nc2nccs2)cc1 [Sulfathiazole] | 0.215 ± 0.93 | 0.0463 ± 0.059 | 0.473 | 0.833 | 0.234 | -0.417
Cc1cccc(CN2CCN(C(c3ccccc3)c3ccc(Cl)cc3)CC2)c1 (stereo not given) [Meclizine 2HCl] | -0.658 ± 0.33 | -0.233 ± 0.27 | -1.01 | -1.47 | 0.358 | -0.265
CCOC(=O)C1=C(COCCN)NC(C)=C(C(=O)OC)C1c1ccccc1Cl (stereo not given) [Amlodipine (Norvasc)] | -2.71 ± 0.87 | -2.51 ± 0.37 | -1.83 | -0.981 | -5.23 | -6.59
N[C@@H](Cc1cc(I)c(Oc2ccc(O)c(I)c2)c(I)c1)C(=O)O [Liothyronine Sodium] | -0.919 ± 0.84 | 0.0158 ± 0.13 | -0.913 | -0.512 | 0.447 | -0.488
CC1(O)CCOC(=O)C1 (racemic) [DL-Mevalonic Acid Lactone] | 0.0166 ± 0.64 | 0.236 ± 0.95 | 0.352 | 0.00823 | -0.0383 | -0.134
Cc1cc(C)nc(NS(=O)(=O)c2ccc(N)cc2)n1 [Sulfamethazine] | 0.662 ± 0.077 | -0.122 ± 0.43 | 0.715 | -0.77 | 0.371 | 0.237
Cl.N=C(N)NCCC[C@H](N)C(=O)O [L-Arginine HCl] | -0.0188 ± 0.085 | 0.203 ± 0.29 | 1.34 | 0.127 | 0.301 | 0.581
Cc1cnc(NC(=O)C2=C(O)c3ccccc3S(=O)(=O)N2C)s1 [Meloxicam (Mobic)] | -0.652 ± 0.39 | -0.087 ± 0.28 | 0.366 | 0.469 | -0.468 | -0.481
CC(C)CC(N)=O [Isovaleramide] | 0.828 ± 0.028 | 0.179 ± 1.3 | 0.675 | -1.99 | 1.04 | 0.823

SMILES | log2 surviving fraction (OVCAR4; [1]) | log2 surviving fraction (OVCAR4; [2]) | log2 surviving fraction (Ov4Carbo; [1]) | log2 surviving fraction (Ov4Carbo; [2]) | log2 surviving fraction (Ov4Cis; [1]) | log2 surviving fraction (Ov4Cis; [2])
CC(=O)Nc1cc([As](=O)(O)O)ccc1O [Acetarsone] | 0.531 ± 0.097 | 0.968 ± 2 | 0.0677 | 0.331 | -0.0541 | 0.116
CNC[C@H](O)[C@@H](O)[C@H](O)[C@H](O)CO [Meglumine] | 0.951 ± 0.29 | 0.146 ± 0.54 | 0.0664 | -0.375 | 0.516 | -0.0011
CCCOc1ccc(C(=O)OCCN(CC)CC)cc1N [Proparacaine HCl] | 0.681 ± 0.19 | 0.479 ± 0.27 | 0.832 | 0.689 | -0.595 | 0.00386
CCOC(=O)[C@H](CCc1ccccc1)N[C@H]1CCc2ccccc2N(CC(=O)O)C1=O [Benazepril hydrochloride] | 0.862 ± 0.21 | 0.417 ± 0.12 | 0.547 | 1.51 | 0.69 | 0.702
CC(=O)SCC(Cc1ccccc1)C(=O)NCC(=O)OCc1ccccc1 (stereo not given) [Racecadotril (Acetorphan)] | 0.236 ± 0.25 | 0.267 ± 0.17 | -0.405 | 0.284 | 0.673 | 0.0459
CCCc1nc(C)c2c(=O)nc(-c3cc(S(=O)(=O)N4CCN(CC)CC4)ccc3OCC)[nH]n12 [Vardenafil (Vivanza)] | -0.185 ± 0.27 | 0.183 ± 0.25 | -0.563 | -0.305 | -0.486 | -0.691
COc1ccc2cc1Oc1ccc(cc1)C[C@H]1c3c(cc4c(c3Oc3cc5c(cc3OC)CCN(C)[C@@H]5C2)OCO4)CCN1C [Cepharanthine] | -4.63 ± 5 | -0.714 ± 0.75 | -7.39 | -9.89 | -4.75 | -2.67
CCCCCCCCCC(=O)N[C@H]1[C@H](Oc2c3cc4cc2Oc2ccc(cc2Cl)[C@@H](O[C@@H]2O[C@H](CO)[C@@H](O)[C@H](O)[C@H]2NC(C)=O)[C@@H]2NC(=O)[C@H](NC(=O)[C@@H]4NC(=O)[C@H]4NC(=O)[C@@H](Cc5ccc(c(Cl)c5)O3)NC(=O)[C@H](N)c3ccc(O)c(c3)Oc3cc(O)cc4c3)c3ccc(O)c(c3)-c3c(OC4O[C@H](CO)[C@@H](O)[C@H](O)[C@@H]4O)cc(O)cc3[C@@H](C(=O)O)NC2=O)O[C@H](CO)[C@@H](O)[C@@H]1O (stereo not given in full) [Teicoplanin] | -0.194 ± 0.31 | -0.124 ± 0.66 | -0.359 | 1.47 | 0.144 | -0.177
CC[C@H]1OC(=O)C[C@@H](O)[C@H](C)[C@@H](O[C@@H]2O[C@H](C)[C@@H](O)[C@H](N(C)C)[C@H]2O)[C@@H](CCN2C[C@H](C)C[C@H](C)C2)C[C@@H](C)C(=O)/C=C/C(C)=C/[C@@H]1CO[C@@H]1O[C@H](C)[C@@H](O)[C@@H](OC)[C@H]1OC [Tilmicosin] | 0.433 ± 0.12 | 0.346 ± 0.64 | 0.288 | 0.504 | 0.0977 | -1.97
C[N+](C)(C)CCO.[Cl-] [Choline Chloride] | 0.603 ± 0.021 | 0.778 ± 0.02 | 0.985 | 0.481 | 0.612 | 0.483
CNNCc1ccc(C(=O)NC(C)C)cc1 [Procarbazine HCl (Matulane)] | -0.725 ± 0.047 | -0.233 ± 0.21 | 1.25 | 0.367 | 0.0385 | -1.16
CC(C)c1nc(CN(C)C(=O)N[C@H](C(=O)N[C@@H](Cc2ccccc2)C[C@H](O)[C@H](Cc2ccccc2)NC(=O)OCc2cncs2)C(C)C)cs1 [Ritonavir] | 0.229 ± 0.46 | -3.27 ± 3.5 | -0.383 | -0.794 | -0.0776 | -0.754
CC(=O)[C@H]1CC[C@H]2[C@@H]3C[C@H](C)C4=CC(=O)CC[C@]4(C)[C@H]3[C@@H](O)C[C@]12C [Medrysone] | 1.36 ± 0.11 | 0.616 ± 0.3 | 1.16 | 0.226 | 1.3 | 0.185
CN(C/C=C/c1ccccc1)Cc1cccc2ccccc12 [Naftifine HCl] | -0.385 ± 0.2 | -0.155 ± 0.12 | 0.559 | -0.656 | 0.672 | -0.0884
CC(NCCc1ccc(O)cc1)C(O)c1ccc(O)cc1 (stereo not given) [Ritodrine hydrochloride (Yutopar)] | -0.423 ± 0.52 | -0.157 ± 0.5 | -0.249 | 0.359 | -0.41 | -0.273
CC1(C)S[C@@H]2[C@H](NC(=O)[C@H](NC(=O)N3CCNC3=O)c3ccccc3)C(=O)N2[C@H]1C(=O)O [Azlocillin sodium salt] | -0.425 ± 0.2 | 0.285 ± 0.12 | 0.0813 | 0.424 | -0.00756 | 0.347
CC(C)(C)c1nc(-c2cccc(NS(=O)(=O)c3c(F)cccc3F)c2F)c(-c2ccnc(N)n2)s1 | 1.1 ± 0.59 | 0.379 ± 0.69 | 2.53 | -4.75 | 1.35 | -0.495
CCOC(=O)[C@H](CCc1ccccc1)N[C@@H](C)C(=O)N1C(=O)N(C)C[C@H]1C(=O)O [Imidapril (Tanatril)] | 0.296 ± 0.8 | 0.0463 ± 0.064 | -0.749 | 0.623 | -0.189 | -0.00176
Nc1c2c(nc3ccccc13)CCCC2 [Tacrine HCl] | -0.305 ± 0.85 | -0.234 ± 0.27 | -1.02 | -0.731 | -0.901 | -1.16
C/C(=C(\CCOP(=O)(O)O)SC(=O)c1ccccc1)N(C=O)Cc1cnc(C)nc1N [Benfotiamine] | -0.208 ± 0.68 | -0.816 ± 0.4 | -0.523 | 0.403 | -0.476 | 0.576
O=C([O-])c1ccccc1O.[Na+] [Sodium salicylate] | 0.122 ± 0.073 | 0.0878 ± 0.27 | -0.291 | -0.24 | -0.0217 | 0.151
C=C1[C@H](CO)[C@@H](O)C[C@@H]1n1cnc2c(=O)[nH]c(N)nc21 [Entecavir hydrate] | 0.348 ± 0.4 | 1.72 ± 1.5 | -0.753 | 2.93 | 0.0631 | 2.04
